{"source": "PubChem BioAssay AID1347430", "about": "(National Center for Advancing Translational Sciences (NCATS), 2020)", "note": "In all, about 91,000 compounds went through this assay and about 130 (0.14%) were called active. This list was built around the results that the source calls inconclusive (neither active nor inactive); the mix of calls is not that of the screen. Calls follow the shape of the dose curve; as a rule, active = well fitted inhibition curve with a large enough effect; inconclusive = small, poorly fitted or top-dose-only effect; inactive = flat fitted curve, though single readings scatter. Where the call is inconclusive, the potency comes from a doubtful curve fit. % is scaled to controls: 0 for no effect and ±100 for the full control effect; potency is read from the fitted curve at half-maximal effect; tags tell the direction and shape of the fitted curve.", "data": [{"system": "Uracil-DNA glycosylase", "test": "Primary qHTS assay for inhibitors of Activation Induced Cytidine Deaminase (AID): UDG Counterscreen signal; also: nearly all actives have a fitted effect of over 65% in size", "conditions": "FRET deamination/UDG coupled assay, UDG read, 4 h; activity change, negative = inhibition: at 115 µM (top of the series)", "values": [{"smiles": "CC(C)(CO)NC/C=C/c1ccccc1", "activity change, negative = inhibition": "inactive: -2.02%"}, {"smiles": "CC(=O)Nc1ccc(C(=O)Nc2ccc3c(c2)N(C2CCCC2)C(=O)c2ccccc2S3)cc1", "Potency": "inconclusive: 35.5 µM [inhibitor, single point]"}, {"smiles": "Cc1nnc(N2CCC(C(=O)NC(C)C)CC2)c2nn(-c3ccccc3)c(C)c12", "activity change, negative = inhibition": "inactive: -16.7%"}, {"smiles": "Cc1nc(-c2cccc(S(=O)(=O)N3CCC(C(=O)NCc4ccccc4Cl)CC3)c2)no1", "Potency": "inconclusive: 100 µM [inhibitor, single point]"}, {"smiles": "c1ccc2c(c1)ncc1nncn12", "activity change, negative = inhibition": "inactive: -8.24%"}, {"smiles": "CCOC(=O)Cc1c(C)nc2c(-c3ccc(Cl)cc3)c(C(F)(F)F)nn2c1C", "Potency": "inconclusive: 56.2 µM [inhibitor, partial curve, poor fit]"}, {"smiles": "COc1ccc(-c2noc(CSc3nnc(Cc4ccccc4)n3-c3cccc(C)c3)n2)cc1", "Potency": "inconclusive: 79.4 µM [inhibitor, partial curve, poor fit]"}, {"smiles": "CCOc1ccc(NC(=O)N(C)CCc2c(C)nn(C)c2C)cc1", "Potency": "inconclusive: 100 µM [inhibitor, single point]"}, {"smiles": "CCOC(=O)c1c(NC(=O)CCN2CCOCC2)sc2c1CC(C)(C)OC2", "Potency": "inconclusive: 89.1 µM [inhibitor, single point]"}, {"smiles": "COc1ccc(-n2cc(C(=O)OCc3ccc(Cl)cc3)c3ccccc3c2=O)cc1", "Potency": "inconclusive: 100 µM [inhibitor, single point]"}, {"smiles": "COc1ccc(OC)c(NC(=O)CSc2nc3ccccc3c(=O)n2CCC(=O)NC2CCCCC2)c1", "Potency": "inconclusive: 89.1 µM [inhibitor, single point]"}, {"smiles": "COc1cc(C(=O)CCN(C)C)cc(OC)c1OC", "activity change, negative = inhibition": "inactive: -4.71%"}, {"smiles": "Cc1ccc(C(=O)N(c2ccc(C)cc2)S(=O)(=O)c2ccc(Cl)cc2)cc1", "Potency": "inconclusive: 89.1 µM [inhibitor, single point]"}, {"smiles": "CCN(C(=O)c1c(C)oc2ncn(CC(C)C)c(=O)c12)c1cccc(Cl)c1", "Potency": "inconclusive: 100 µM [inhibitor, single point]"}, {"smiles": "CCCn1c(CCC(=O)Nc2ccc(C)c(Cl)c2)nc2cccnc21", "Potency": "inconclusive: 89.1 µM [inhibitor, single point]"}, {"smiles": "CC(C)=CC1C(C(=O)NC2CCCCC2C(F)(F)F)C1(C)C", "note": "(centres undefined)", "activity change, negative = inhibition": "inactive: -0.76%"}, {"smiles": "O=C(Nc1cnn(Cc2ccc(Cl)cc2Cl)c1)c1noc2c1CCc1ccccc1-2", "Potency": "inconclusive: 79.4 µM [inhibitor, partial curve]"}, {"smiles": "Cc1ccc(C)c(Nc2nn3c(=O)c4cc5c(cc4nc3s2)OCO5)c1", "Potency": "inconclusive: 89.1 µM [inhibitor, single point]"}, {"smiles": "Cc1ccc(SCC(=O)Nc2ccc3oc(-c4cccc(Cl)c4)nc3c2)cc1", "Potency": "inconclusive: 89.1 µM [inhibitor, partial curve, poor fit]"}, {"smiles": "O=C(/C=C/c1ccc(-c2ccccc2Cl)o1)c1ccc2ccccc2c1", "activity change, negative = inhibition": "inactive: -4.52%"}, {"smiles": "Cc1cc(C)cc(NC(=O)C2CC(=O)N(c3ccccc3)C2)c1", "note": "(centres undefined)", "activity change, negative = inhibition": "inactive: 10.2%"}, {"smiles": "Cc1cccc(-c2nc(CN3CCCC(C(=O)NCCc4ccc(Cl)cc4)C3)c(C)o2)c1", "note": "(centres undefined)", "Potency": "inconclusive: 89.1 µM [inhibitor, partial curve, poor fit]"}, {"smiles": "Clc1ccc(Nc2c(-c3ccccc3Cl)nc3ccc(Cl)cn23)cc1", "Potency": "inconclusive: 79.4 µM [inhibitor, partial curve, poor fit]"}, {"smiles": "Cc1cccc(C(=O)Oc2c(Sc3ccccc3)c(C)nn2C(C)(C)C)c1", "Potency": "inconclusive: 89.1 µM [inhibitor, single point]"}, {"smiles": "CC1CCCN(C(C)C(=O)Nc2ccc(C#N)cc2)C1", "note": "(centres undefined)", "activity change, negative = inhibition": "inactive: -5.94%"}, {"smiles": "CCOC(=O)C1C(=O)C=C(/C=C/c2ccco2)CC1c1ccccc1", "note": "(centres undefined)", "activity change, negative = inhibition": "inactive: 6.74%"}, {"smiles": "CC1CCN(S(=O)(=O)c2ccc(NC(=O)C3CC(=O)N(CCc4ccc(F)cc4)C3)cc2)CC1", "note": "(centres undefined)", "Potency": "active: 89.1 µM"}, {"smiles": "CC(C)CC(C(=O)NCC1CCN(Cc2ccc(F)cc2)CC1)N1Cc2ccccc2C1=O", "note": "(centres undefined)", "Potency": "inconclusive: 89.1 µM [inhibitor, single point]"}, {"smiles": "CCc1nc(-c2ccc(C)c(S(=O)(=O)N3CCN(c4ccc(C(C)=O)cc4)CC3)c2)no1", "Potency": "inconclusive: 50.1 µM [inhibitor, partial curve, poor fit]"}, {"smiles": "CN(C)/C=C/C(=O)c1ccc[nH]1", "activity change, negative = inhibition": "inactive: 1.8%"}, {"smiles": "CC(C)CCn1c(=O)c2cccnc2n(CC(=O)Nc2ccccc2F)c1=O", "Potency": "inconclusive: 100 µM [inhibitor, single point]"}, {"smiles": "CC1=C(C(=O)Nc2ccccc2Cl)C(c2cccc(O)c2)n2ncnc2N1", "note": "(centres undefined)", "activity change, negative = inhibition": "inactive: 1.65%"}, {"smiles": "CN(CCC#N)C(=O)COC(=O)c1cccnc1Nc1ccccc1F", "activity change, negative = inhibition": "inactive: 0.139%"}, {"smiles": "Cc1oc(-c2cccc(Cl)c2)nc1CN1CCC(C(=O)NC(C)c2ccccc2)CC1", "note": "(centres undefined)", "Potency": "inconclusive: 89.1 µM [inhibitor, single point]"}, {"smiles": "COc1ccc(C(C)=O)cc1COC(=O)C12CC3CC(CC(Br)(C3)C1)C2", "activity change, negative = inhibition": "inactive: -2.35%"}, {"smiles": "COc1cccc(NC(=O)CSc2nnc(-c3cccc(OC)c3)o2)c1", "Potency": "inconclusive: 89.1 µM [inhibitor, partial curve, poor fit]"}, {"smiles": "CCCc1cc(=O)oc2c(C)c(OCC(=O)NCc3ccccn3)ccc12", "activity change, negative = inhibition": "inactive: 2.15%"}, {"smiles": "O=C(c1ccc(CS(=O)(=O)c2ccc(Br)cc2)o1)N1CCN(c2ccc(F)cc2)CC1", "Potency": "inconclusive: 89.1 µM [inhibitor, partial curve, poor fit]"}, {"smiles": "COc1ccc(-c2noc(CSc3nnc(C)n3-c3ccc(F)cc3)n2)cc1", "Potency": "active: 79.4 µM"}, {"smiles": "CCOc1ccc(NC(=O)N2CC3CCCN3c3ccccc32)cc1", "note": "(centres undefined)", "Potency": "inconclusive: 89.1 µM [inhibitor, partial curve, poor fit]"}, {"smiles": "Cc1ccc(-c2nc(C#N)c(N3CCN(C(=O)c4cccs4)CC3)o2)cc1", "Potency": "inconclusive: 89.1 µM [inhibitor, single point]"}, {"smiles": "COC(=O)c1ccccc1NC(=O)CCCn1nc(C)c2c(C)n(-c3ccccc3)nc2c1=O", "Potency": "inconclusive: 89.1 µM [inhibitor, single point]"}, {"smiles": "O=C(Nc1c(NC2CCCCC2)c2ccccc2oc1=O)c1ccccc1Cl", "activity change, negative = inhibition": "inactive: 5.62%"}, {"smiles": "Cc1ccc(C)c(S(=O)(=O)c2nnn3c2nc(NC2CCCC2)c2sccc23)c1", "Potency": "inconclusive: 70.8 µM [inhibitor, single point]"}]}]}
